# From patent publication US20230383007A1 (BIOSION, published 2023)
# T1: cynomolgus TROP2-his protein (cynomolgus, UniProt P09758 27-272 (human entry), limits assumed)
# T1 construct: also called Cyno TROP2-his; Cynomolgus monkey TROP2-his protein
# T1 chain: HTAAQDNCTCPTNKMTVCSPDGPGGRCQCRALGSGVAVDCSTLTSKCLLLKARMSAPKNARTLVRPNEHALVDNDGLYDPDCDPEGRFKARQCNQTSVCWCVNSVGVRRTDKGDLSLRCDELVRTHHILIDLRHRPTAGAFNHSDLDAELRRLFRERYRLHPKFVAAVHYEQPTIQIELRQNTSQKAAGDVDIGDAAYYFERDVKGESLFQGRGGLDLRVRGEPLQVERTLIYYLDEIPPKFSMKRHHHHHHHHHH
# T2: full length human TROP2 on 293F-TROP2 cells (clone ID #3A8) (human, UniProt P09758 27-323)
# T2 sequence: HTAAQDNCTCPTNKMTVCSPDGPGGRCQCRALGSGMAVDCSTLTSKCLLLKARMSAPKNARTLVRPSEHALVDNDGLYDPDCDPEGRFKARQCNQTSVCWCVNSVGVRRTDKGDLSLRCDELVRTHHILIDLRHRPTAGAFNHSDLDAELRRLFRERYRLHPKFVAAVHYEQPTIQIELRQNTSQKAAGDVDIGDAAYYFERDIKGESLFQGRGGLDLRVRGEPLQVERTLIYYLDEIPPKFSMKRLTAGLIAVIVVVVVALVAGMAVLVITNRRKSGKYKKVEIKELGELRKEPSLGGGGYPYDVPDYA
# T3: human TROP2-his protein (human, UniProt P09758 27-274)
# T3 construct: also called biotin labeled human TROP2-his protein
# T3 sequence: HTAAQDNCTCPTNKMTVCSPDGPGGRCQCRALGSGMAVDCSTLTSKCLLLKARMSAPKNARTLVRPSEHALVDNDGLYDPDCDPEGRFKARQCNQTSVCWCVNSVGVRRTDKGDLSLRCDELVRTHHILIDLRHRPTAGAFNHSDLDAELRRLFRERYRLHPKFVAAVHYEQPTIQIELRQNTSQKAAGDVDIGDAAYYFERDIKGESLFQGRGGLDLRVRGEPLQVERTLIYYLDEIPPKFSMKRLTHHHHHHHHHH
# B1: 01-9F-CDR-V11-V11-Fc (Fc fusion)
# heavy: EVQLVESGGGLVQPGGSLRLSCAASGLPYSRYCVAWFRQAPGKGLEGVARILSDATTSYSDTVKGRFTISKDNAKNSLYLQMNSLRAEDTAVYYCAAEAFRPFTPSDADCTTVLGIDYWGQGTTVTVSS[… human IgG1 Fc …]
# notes: also called 01-9F-Fc-CDRV11-V11; 01-9F-Fc-CDRV 11-V11
# B2: 01-9F-Fc (Fc fusion)
# heavy: QVQLVESGGGSVQAGGSLRLSCVVSGLPYERYCVAWFRQGPGKEREGVARILSDGTTSYSDSVKGRFTISKDNAKNTLYLQMNSLKSEDTATYYCAAEAFRPFTPSDGDCTTVLGIDYWGKGTPVTVSS[… human IgG1 Fc …]
# notes: C terminus of the VHH linked to the N terminus of the Fc region; also called heavy chain only antibody 01-9F-Fc
# B3: 01-9F-CDR-V5-Fc (Fc fusion)
# heavy: QVQLVESGGGSVQAGGSLRLSCVVSGLPYERYCVAWFRQGPGKEREGVARILSDATTSYSDSVKGRFTISKDNAKNTLYLQMNSLKSEDTATYYCAAEAFRPFTPSEGDCTTVLGIDYWGKGTPVTVSS[… human IgG1 Fc …]
# notes: also called 01-9F-CDR-Fc-V5
# B4: 01-9F-CDR-V8-Fc (Fc fusion)
# heavy: QVQLVESGGGSVQAGGSLRLSCVVSGLPYERYCVAWFRQGPGKEREGVARILSEGTTSYSESVKGRFTISKDNAKNTLYLQMNSLKSEDTATYYCAAEAFRPFTPSEGDCTTVLGIDYWGKGTPVTVSS[… human IgG1 Fc …]
# notes: Heavy chain only antibody (VHH-Fc); tested as cell supernatant; also called 01-9F-CDR-Fc-V8
# B5: 01-9F-CDR-V6-Fc (Fc fusion)
# heavy: QVQLVESGGGSVQAGGSLRLSCVVSGLPYERYCVAWFRQGPGKEREGVARILSEGTTSYSDSVKGRFTISKDNAKNTLYLQMNSLKSEDTATYYCAAEAFRPFTPSDADCTTVLGIDYWGKGTPVTVSS[… human IgG1 Fc …]
# notes: Heavy chain only antibody (VHH-Fc); tested as cell supernatant; also called 01-9F-CDR-Fc-V6
# B6: 01-9F-CDR-V10-Fc (Fc fusion)
# heavy: QVQLVESGGGSVQAGGSLRLSCVVSGLPYERYCVAWFRQGPGKEREGVARILSEGTTSYSDTVKGRFTISKDNAKNTLYLQMNSLKSEDTATYYCAAEAFRPFTPSDADCTTVLGIDYWGKGTPVTVSS[… human IgG1 Fc …]
# notes: Heavy chain only antibody (VHH-Fc); tested as cell supernatant; also called 01-9F-CDR-Fc-V10
# B7: 01-9F-CDR-V7-Fc (Fc fusion)
# heavy: QVQLVESGGGSVQAGGSLRLSCVVSGLPYERYCVAWFRQGPGKEREGVARILSDATTSYSDSVKGRFTISKDNAKNTLYLQMNSLKSEDTATYYCAAEAFRPFTPSDADCTTVLGIDYWGKGTPVTVSS[… human IgG1 Fc …]
# notes: Heavy chain only antibody (VHH-Fc); tested as cell supernatant; also called 01-9F-CDR-Fc-V7
# B8: 01-9F-CDR-V9-Fc (Fc fusion)
# heavy: QVQLVESGGGSVQAGGSLRLSCVVSGLPYERYCVAWFRQGPGKEREGVARILSDATTSYSESVKGRFTISKDNAKNTLYLQMNSLKSEDTATYYCAAEAFRPFTPSEGDCTTVLGIDYWGKGTPVTVSS[… human IgG1 Fc …]
# notes: also called 01-9F-CDR-Fc-V9
# B9: 01-9F-CDR-V11-Fc (Fc fusion)
# heavy: QVQLVESGGGSVQAGGSLRLSCVVSGLPYERYCVAWFRQGPGKEREGVARILSDATTSYSDTVKGRFTISKDNAKNTLYLQMNSLKSEDTATYYCAAEAFRPFTPSDADCTTVLGIDYWGKGTPVTVSS[… human IgG1 Fc …]
# notes: also called 01-9F-CDR-Fc-V11
# Legend:
# [1] = molecular target: T1, cynomolgus TROP2-his protein; assay: indirect ELISA on cynomolgus TROP2; unit taken from the x axis (nM)
# [2] = molecular target: T2, full length human TROP2 on 293F-TROP2 …; assay: cell based binding FACS (MFI) on 293F-TROP2 cells expressing human TROP2; unit taken from the x axis (nM)
# Experimental: Cells were washed twice with FACS buffer, and added with 100 μL/well R-Phycoerythrin AffiniPure Goat Anti-Human IgG, Fey fragment specific (1:1000 dilution in FACS buffer, Jackson Immunoresearch, Cat #109-115-098). Following an incubation of 40 minutes at 4° C. in dark, cells were washed twice and re-suspended in FACS buffer. Fluorescence was measured using a Becton Dickinson FACS Canto II-HTS equipment, and the MFI (mean fluorescence intensity) was plotted against antibody concentration. Data was analyzed using Graphpad Prism software and EC₅₀ values were reported.
# [3] = molecular target: T1, cynomolgus TROP2-his protein; assay: SPR Biacore; antibody captured on anti-human IgG chip, TROP2-his as analyte
# [4] = molecular target: T3, human TROP2-his protein; assay: as above
# [5] = molecular target: T3, human TROP2-his protein; assay: capture ELISA: antibody captured on anti-human IgG Fc coated plate, biotin labeled human TROP2-his detected with streptavidin-HRP; unit taken from the x axis (nM)
# Experimental: For the capture ELISA, 96-well plates were coated with 100 μl 2 μg/ml AffiniPure F(ab′)₂ Fragment GoatAnti-Human IgG, Fey fragment specific (Jackson Immuno Research, Cat #109-006-008) in PBS overnight at 4° C. Plates were washed once with wash buffer (PBS+0.05% v/v Tween-20, PBST) and then blocked with 200 μl/well blocking buffer (5% w/v non-fatty milk in PBST) for 2 hours at 37° C. Plates were washed 4 times and respectively incubated with 100 μl serially diluted anti-TROP2 antibodies of the disclosure, the benchmark or negative control hIgG (human immunoglobulin (pH4) for intravenous injection, Hualan Biological Engineering Inc.) (5-fold dilution in 2.5% w/v non-fatty milk in PBST, starting at 66.7 nM) for 40 minutes at 37° C., and then washed 4 times again. […] The reaction was stopped in 3-10 minutes at room temperature with 50 μl/well 1M H₂SO₄, and the absorbance of each well was read on a microplate reader using dual wavelength mode with 450 nm for TMB and 630 nm as the reference wavelength. […] Data was analyzed using Graphpad Prism software and EC₅₀ values were reported.
# [6] = molecular target: T3, human TROP2-his protein; assay: SPR Biacore T200; cell supernatant captured on anti-human IgG chip, 40 nM human TROP2-his as analyte
# From the text: (§1) The purified anti-TROP2 mouse monoclonal antibodies (mAbs) were characterized for binding affinity and binding kinetics by Biacore T200 system (GE healthcare, Pittsburgh, PA, USA). Briefly, goat anti-human IgG (GE healthcare, Cat #BR100839, Human Antibody Capture Kit) was covalently linked to a CM5 chip (carboxy methyl dextran coated chip from GE healthcare #BR100530) via primary amines, using a standard amine coupling kit (GE healthcare, Pittsburgh, PA, USA) provided by Biacore. Un-reacted moieties on the chip (biosensor) surface were blocked with ethanolamine. The anti-TROP2 antibodies of the disclosure and the benchmark at the concentration of 2 μg/ml were respectively flowed onto the chip at a flow rate of 10 μL/min. Then, serially diluted human TROP2-his protein (prepared in-house with SEQ ID NO: 16), or cynomolgus TROP2-his protein (prepared in-house with SEQ ID NO: 19), 2-fold dilution in HBS-EP⁺ buffer (provided by Biacore) starting at 160 nM, were flowed onto the chip at a flow rate of 30 μL/min. The antigen-antibody association kinetics was followed for 2 minutes and the dissociation kinetics was followed for 10 minutes. The association and dissociation curves were fit to a 1:1 Langmuir binding model using BIAcore evaluation software.
# (§2) For the BIAcore test, cell supernatants containing humanized 01-9F-CDR-V11 antibodies were respectively flowed onto the chip at a flow rate of 10 μL/min, and 40 nM human TROP2-his protein (prepared in-house with SEQ ID NO: 16) in HBS-EP⁺ buffer (provided by Biacore) were flowed onto the chip at a flow rate of 30 μL/min.
# [7] = molecular target: T3, human TROP2-his protein; assay: indirect ELISA on human TROP2; unit taken from the x axis (nM)
# [8] = molecular target: T3, human TROP2-his protein; assay: competitive ELISA: antibody pre-mixed with biotin labeled human TROP2-his, added to plate coated with the benchmark (sacituzumab analog); unit taken from the x axis (nM)
# [9] = molecular target: T3, human TROP2-his protein; assay: SPR Biacore; antibody captured on anti-human IgG chip, 40 nM human TROP2-his as analyte
# From the text: as §1
# (§3) For the BIAcore test, cell supernatants containing the 01-9F-Fc variants were respectively flowed onto the chip instead of the purified anti-TROP2 antibodies, at a flow rate of 10 μL/min, and 40 nM human TROP2-his proteins (prepared in-house with SEQ ID NO: 16) in HBS-EP⁺ buffer (provided by Biacore), instead of serially diluted human TROP2-his proteins, were flowed onto the chip at a flow rate of 30 μL/min.
# [10] = molecular target: T3, human TROP2-his protein; assay: SPR Biacore; cell supernatant captured on anti-human IgG chip, 40 nM human TROP2-his as analyte
# From the text: as §1, §3
# [11] = molecular target: T3, human TROP2-his protein; assay: SPR Biacore T200; antibody captured on anti-human IgG chip, 40 nM human TROP2-his as analyte
# From the text: as §1, §2
binder,measurement,setting,value
B1,EC50,[1],90.1 pM
same,EC50,[2],387 pM
same,Kd,[3],397 pM
same,koff,[3],0.00018 s⁻¹
same,kon,[3],453000 M⁻¹ s⁻¹
same,Kd,[4],453 pM
same,koff,[4],0.000179 s⁻¹
same,kon,[4],394000 M⁻¹ s⁻¹
same,EC50,[5],169 pM
same,Kd,[6],200 pM
same,koff,[6],0.000294 s⁻¹
same,kon,[6],1.47e+06 M⁻¹ s⁻¹
same,EC50,[7],95.9 pM
same,IC50,[8],244 pM
B2,Kd,[9],338 pM
same,koff,[9],0.000154 s⁻¹
same,kon,[9],456000 M⁻¹ s⁻¹
B3,Kd,[10],108 pM
same,koff,[10],3.99e-05 s⁻¹
same,kon,[10],368000 M⁻¹ s⁻¹
B4,Kd,[10],215 pM
same,koff,[10],6.92e-05 s⁻¹
same,kon,[10],323000 M⁻¹ s⁻¹
B5,Kd,[10],197 pM
same,koff,[10],6.62e-05 s⁻¹
same,kon,[10],336000 M⁻¹ s⁻¹
B6,Kd,[10],259 pM
same,koff,[10],0.000117 s⁻¹
same,kon,[10],450000 M⁻¹ s⁻¹
B7,Kd,[10],261 pM
same,koff,[10],0.000114 s⁻¹
same,kon,[10],439000 M⁻¹ s⁻¹
B8,Kd,[10],254 pM
same,koff,[10],0.000105 s⁻¹
same,kon,[10],413000 M⁻¹ s⁻¹
B9,Kd,[11],151 pM
same,koff,[11],0.000223 s⁻¹
same,kon,[11],1.48e+06 M⁻¹ s⁻¹
same,EC50,[1],113 pM
same,EC50,[2],474 pM
same,Kd,[10],172 pM
same,koff,[10],8.17e-05 s⁻¹
same,kon,[10],475000 M⁻¹ s⁻¹
same,Kd,[3],300 pM
same,koff,[3],0.000124 s⁻¹
same,kon,[3],412000 M⁻¹ s⁻¹
same,Kd,[4],327 pM
same,koff,[4],0.000127 s⁻¹
same,kon,[4],389000 M⁻¹ s⁻¹
same,EC50,[5],150 pM
same,EC50,[7],113 pM
same,IC50,[8],198 pM
